Measured values reported in ChEMBL document CHEMBL4888484, “Replenishing the malaria drug discovery pipeline: Screening and hit evaluation of the MMV Hit Generation Library 1 (HGL1) against asexual blood stage Plasmodium falciparum ,using a nano luciferase reporter read-out” (2022).
Out of some 150,000 compounds screened, about 540 (0.36%) showed an effect of 50% or more. The list shows a part of the results.

tested on: Plasmodium falciparum; experiment: Primary screen in NF54 nanoGlo assay, in single point, at 2uM, 72h; a lower Z score goes with more inhibition; format: functional, Erythrocyte; conditions: timepoint 72 hour

| SMILES | % Inhibition [%] | Z score |
| --- | --- | --- |
| C[C@@H](c1ccccc1)N(Cc1nnc2n1CCOCC2)S(C)(=O)=O | 19 | -3.18 |
| NC(=O)c1cncc(N2CCC(Oc3ccccc3Cl)CC2)n1 | -14 | 1.79 |
| Cc1ccn2c3c(nc2c1)CNC(=O)C[C@@H]3c1ccc(F)c(C)c1 | 6 | -0.79 |
| Cc1nn(CCO)c(C)c1CN1CCn2nc(C#N)cc2C1 | -15 | 1.36 |
| N#Cc1ccccc1C(=O)N1CCC2(CCN(C3CCCC3)CC2)[C@@H](CO)C1 | -4 | 0.71 |
| CCNC(=O)N1CCN(c2ccc(-c3noc(C(F)(F)F)n3)cn2)CC1 | 12 | -1.6 |
| Cc1ccc2nc(C)c(C)c(C(=O)N3CC[C@H](Cc4cccc(CO)c4)C3)c2c1 | -4 | 0.82 |
| CC(C)c1ccc(N2CCN(C(=O)c3cccs3)[C@@H](C)C2=O)cc1 | -7 | 1.13 |
| COc1ccc2[nH]c(CN3CCN(Cc4ccsc4)[C@@H](CCO)C3)c(C)c2c1 | -15 | 1.67 |
| Cc1ccc(C)c(OCCN(C)C(=O)CN2CCCC2=O)c1 | -6 | 0.8 |
| COc1ccc2c(c1Cl)[C@@H](NCC1(CO)CCOCC1)CCC2 | -7 | 1.1 |
| COCC1(C(=O)NC2(c3cc(F)ccc3F)CC2)CCC1 | -17 | 1.55 |
| CC(=O)Nc1ccc(NCc2scnc2C)c(Br)c1 | -16 | 1.4 |
| Cc1cc(C)n(CC(=O)N2CCC3(CCC(=O)N(Cc4ccncc4)C3)CC2)n1 | 3 | -0.41 |
| O=C(NCCCN1CCCC1)c1ccc2c(c1)NC(=O)[C@@H]1CCCCN21 | -2 | 0.34 |
| CCc1nnc(CNC(=O)c2cnc(-c3csc(C)n3)nc2O)s1 | -9 | 1.19 |
| C=CCCCNc1ccc(C(N)=O)c(F)c1 | 38 | -4.33 |
| COc1ccc(C)cc1NC(=O)c1cnn2c(=O)cc(C)[nH]c12 | -14 | 1.75 |
| Cc1ccc([C@@H](C)CCNc2cc(C(=O)N(C)C)cc(S(=O)(=O)NCCN3CCNC3=O)c2)o1 | -2 | 0.43 |
| CCC1=NC2(CCN(C(=O)[C@H](C)Oc3ccc4c(c3)OCO4)CC2)C(=O)N1 | -6 | 0.81 |
| COCc1nc(CN(Cc2ccco2)C(=O)NC(C)C)[nH]c(=O)c1Cc1cccc(C(F)(F)F)c1 | -3 | 0.38 |

| SMILES | % Inhibition [%] | Z score |
| --- | --- | --- |
| COc1ccc(NC(=O)[C@H](C)N(C)Cc2cnccn2)cc1Cl | -6 | 0.69 |
| C=CCN(CCO)S(=O)(=O)c1ccc(F)c(C)c1 | -5 | 0.53 |
| CN(C)C[C@@]12CN(Cc3ccccc3)C[C@@H]1CN(C(=O)c1ccco1)C2 | -8 | 1.12 |
| COc1cc(CNCCc2ccccc2C)ccc1OC[C@@H](O)CN1CCOCC1 | 3 | -0.56 |
| CCC(CC)C(=O)N1CCC2(CCN(Cc3sccc3C)CC2)CC1 | -9 | 1.81 |
| COc1ccc(C2=NOC(CNC3CC(C)OC3C)C2)cc1F (stereo not drawn) | -13 | 1.61 |
| CN(C)c1cccc(C(=O)N(C)[C@H]2COC[C@@H]2O)c1 | 0 | -0.06 |
| CN(CCc1ccccn1)c1nc(-c2ccccc2)nc2c1CCNC2 | -3 | 0.49 |
| CC1(C2CCN(c3cc(C(F)(F)F)nc(-c4cccnc4)n3)CC2)OCCO1 | 5 | -0.87 |
| COc1ccc(OCC(=O)Nc2[nH]nc(C)c2-c2cccc(Cl)c2)cc1 | 0 | -0.05 |
| O=C(NCc1cccnc1)C(=O)N1CCCCC1 | -1 | 0.07 |
| CCc1nnc(CN2CCc3ccccc32)o1 | -7 | 0.8 |
| CCOC1CC(Nc2ccc(C#N)cc2)C12CCCO2 (stereo not drawn) | -3 | 0.65 |
| CC(C)N1CCNC(=O)[C@@H]1Cc1nc(C2CC2)nn1-c1ccccn1 | -3 | 0.5 |
| Cc1n[nH]c(C)c1S(=O)(=O)N1CC(c2ccncc2)C1 | -20 | 1.93 |
| CCn1c(=O)c(C(=O)NC(C)C)nn(-c2cccc(C)c2)c1=O | -6 | 0.85 |
| CCc1c(C)nc(C)nc1-c1ccc(-n2cccn2)cc1 | -5 | 0.65 |
| CN1CCN(Cc2noc(C3CCC3)n2)c2ccc(Cl)cc21 | -7 | 1.1 |
| CCc1onc(C)c1NC(=O)NCC(F)(F)c1cccc(F)c1 | -2 | 0.34 |
| CCC1(c2nc(Cc3noc(C)n3)no2)CCCC1 | -2 | 0.31 |
| Cc1ccc(Cl)cc1-n1c2c(cc(C#N)c1=O)C(=O)C[C@H](c1ccccc1)C2 | 0 | -0.05 |

| SMILES | % Inhibition [%] | Z score |
| --- | --- | --- |
| CCc1nc(NC(=O)c2cccc(CN3CC[C@H](O)C3)c2)nn1C | -3 | 0.29 |
| Cc1ccc(OCC(=O)N(C)[C@@H](C)Cc2cnccn2)cc1C | -1 | 0.23 |
| COC(C)(C)c1nsc(NCC23COCCN2CCOC3)n1 | -6 | 1.15 |
| O=C(NC1CCC(O)CC1)NC1CCN(Cc2ccccc2)CC1 (stereo not drawn) | -6 | 0.87 |
| O=C(OCc1nc(-c2ccccc2)cs1)c1ccc2nncn2c1 | -7 | 1 |
| O=S(=O)(c1ccc2c(c1)CCO2)N1CC[C@H](Oc2cnccn2)C1 | -11 | 1.24 |
| O=C(Cc1ccc(F)cc1Cl)N[C@@H](Cc1ccncc1)C1CC(O)C1 (stereo partly drawn) | -6 | 1.08 |
| Cn1cncc1Cc1noc([C@@]23C[C@@H]2COC32CCC2)n1 | -6 | 0.97 |
| O=C(NCC1CC1)Nc1cccc(-c2cn[nH]c2)c1 | -6 | 0.88 |
| Cc1noc(C)c1CC(=O)N1C[C@H]2C[C@H](C1)[C@H]1CCCC(=O)N1C2 | -2 | 0.4 |
| O=C(c1n[nH]c2ccccc12)N1CC[C@H](O)CC12CCC2 | 1 | -0.24 |
| CC(C)C[C@@H](CNC(=O)c1cccc(F)c1Cl)C(=O)O | -3 | 0.23 |
| COc1cccc(CN/C(=N\c2ccc(C(=O)O)cc2)N2CCN(c3ncccn3)CC2)c1 | 6 | -1.12 |
| N#Cc1ccc(N2C[C@H]3CC[C@@H](C2)N(Cc2cscn2)C3=O)nc1 | -21 | 1.91 |
| Cc1ccc(C(=O)N2CC[C@H]3[C@H](CCC(=O)N3CC(C)C)C2)c(=O)[nH]1 | 8 | -1.3 |
| CC(=O)n1cc2cc(Br)cc(C)c2n1 | -4 | 0.46 |
| COc1ccc(NC(=O)N2CCC(c3cc(O)nc(C)n3)CC2)cc1 | -5 | 0.8 |
| COc1c(C(=O)Nc2cccc(F)c2)oc2ccc(NC(=O)c3cccc(C)c3)cc12 | -19 | 2.23 |
| CN(CCNC(=O)C1CCN(c2nc3cccnc3s2)CC1)C1CCCCC1 | -24 | 2.14 |
| O=C(OCc1nc2cc(C(F)(F)F)ccc2o1)c1cccnc1 | -14 | 1.76 |
| COc1cc(Cl)c(C)cc1-n1ccnc(NC(=O)c2cccc(F)c2)c1=O | -12 | 1.59 |

| SMILES | % Inhibition [%] | Z score |
| --- | --- | --- |
| Cc1ccccc1S(=O)(=O)Nc1nn(C)c2cc(C)n(C)c(=O)c12 | -14 | 1.82 |
| CCn1cc(S(=O)(=O)N2CCN(CC(=O)NC3CCCCC3)CC2)c(C)n1 | 1 | -0.13 |
| Cn1nc(C(=O)NC2CCCCC2)c2c1-c1ccccc1CC2 | 7 | -1.13 |
| COc1ccc(-c2cc(C(F)(F)F)nn2-c2nc(C(=O)O)cs2)cc1 | -28 | 3.28 |
| Cc1cc(CC(=O)N[C@H]2CCN(c3ccc(Cl)c(F)c3)C2)n[nH]1 | 4 | -0.33 |
| Cc1cc(C)c(C)c(OCc2nc(CN(C(=O)c3ccco3)C(C)C)cs2)c1 | -10 | 1.31 |
| NC(=O)C1CCCC1NC(=O)CCc1cccnc1 (stereo not drawn) | 0 | 0.03 |
| Cc1cnccc1CN(C)C(=O)Cn1nnnc1CN1C[C@@H](C)O[C@@H](C)C1 | -8 | 0.8 |
| Cc1cc(C)cc(NC(=O)NC2CCN(c3cnccn3)CC2)c1 | -10 | 1.25 |
| CCN1CCN(c2ccc(NC(=O)[C@@H](NC(=O)c3ccc(Cl)cc3)C(C)C)cc2C)CC1 | 5 | -0.9 |
| C[C@H](NC(=O)c1cc(=O)n(C)cc1Br)c1nc[nH]n1 | -6 | 1.05 |
| OCc1ccnc(-c2cc(O)cc(CC[C@H]3CCCCN3)c2)c1 | -3 | 0.48 |
| O=C(Nc1cc(C2CC2)n[nH]1)C1CCCCCC1 | -24 | 2.83 |
| O=C(COC[C@H]1CCCO1)NCc1nc2ccccc2s1 | 1 | -0.26 |
| CNS(=O)(=O)c1ccc(S(=O)(=O)NC)n1-c1c(Cl)cc(C(F)(F)F)cc1Cl | -10 | 1.19 |
| CN1CC2(CCN(Cc3cccs3)CC2)C[C@H]1C(=O)Nc1ccccc1 | -7 | 0.95 |
| Cc1cccc(N2CCN(C(=O)c3nc(Cn4nc(-c5ccc(C)c(C)c5)ccc4=O)no3)C[C@@H]2C)c1 | -12 | 1.73 |
| CN1CCC2(CCN(Cc3cc(-c4ccccc4)on3)CC2)C1=O | -11 | 1.76 |
| Cc1nc(C)c(C(=O)N[C@@]2(C)CCS(=O)(=O)C2)s1 | -3 | 0.41 |
| CNC(=O)[C@@H]1CN(Cc2c(-c3ccc(Cl)cc3)nc3sccn23)CCO1 | -13 | 1.3 |
| COCCOC1CCC(C(=O)Nc2cnc(C)s2)CC1 (stereo not drawn) | 0 | -0.03 |
